This is one part of the list.

The record followed here is paper PMC7819943, “Rice protein-binding microarrays: a tool to detect cis-acting elements near promoter regions in rice”.

The assay has as its target T1, OsWOX13 (Oryza sativa, UniProt Q5QMM3 1-267).
T1 sequence: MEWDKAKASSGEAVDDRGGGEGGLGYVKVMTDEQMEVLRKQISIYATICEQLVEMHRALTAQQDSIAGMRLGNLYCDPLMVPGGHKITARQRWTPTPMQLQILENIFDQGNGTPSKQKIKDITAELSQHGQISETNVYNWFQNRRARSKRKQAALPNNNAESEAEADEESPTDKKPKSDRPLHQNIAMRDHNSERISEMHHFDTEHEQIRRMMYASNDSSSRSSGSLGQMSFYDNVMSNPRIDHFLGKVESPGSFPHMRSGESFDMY
The assay can be described thus: protein-binding microarray (RPBM); PBS, 2% BSA, 51.3 ng/ul salmon testes DNA, 50 uM zinc acetate, 200 nM TF, 25 C, 1 h; high values mean tight binding. The note with it: protein: recombinant; tags: N-terminal polyhistidine and DsRed monomer fusion (pET32a); label: CyDye5-dUTP incorporated in the synthesized complementary strand; 3' TTTTT single-stranded linker to array surface; dsDNA, one strand shown. An outline of the steps: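 Binding signal is reported as fluorescence intensity per feature (arbitrary units) from an Axon 4000B scanner. Incubation used 200 nM of each Ni–NTA-purified, N-terminally polyhistidine- and DsRed-fused transcription factor from E. coli BL21-CodonPlus on a double-stranded custom Agilent array for 1 h at 25 °C, with 50 µM zinc acetate in the buffer, followed by washing.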
“GTTACACTGCAATTATATCGTATTTACATTTATAACTGGGCGGAGTCACCTAGTGCAG”: the binding signal is 3200 fluorescence intensity (a.u.). To “AGTGATGGATAGAGAAAGAAGATGGAACTGACATGCGGGTCGGAGTCACCTAGTGCAG” belongs 12800 fluorescence intensity (a.u.). As for “AATTAAATTAACTTCTGTGCGTGTGTCTGTGGGGCCCTTGCGGAGTCACCTAGTGCAG”, the binding signal was 18100 fluorescence intensity (a.u.).

For “ATTTCAAAATTTGTTATAAATTTTGCAGTTATTTCATGCACGGAGTCACCTAGTGCAG”, the binding signal was 7840 fluorescence intensity (a.u.). On to “ATGCTCAAATCAGTGTCTTAATTATAGGCTGGCTGATTGGCGGAGTCACCTAGTGCAG”, for which the binding signal is 15000 fluorescence intensity (a.u.). On to “CTTCTAGTGAGTTGATTGAAGGGATCTAATCCTGGGTCCGCGGAGTCACCTAGTGCAG”, for which the binding signal is 23700 fluorescence intensity (a.u.).

“TCCAAATCTAGATTGATGGATGGTCTACTTCGCCAAGTATCGGAGTCACCTAGTGCAG”: the binding signal was 49200 fluorescence intensity (a.u.). The same measure for “CAAATGATTAAACATTGGACATAGAAACCCACAACTATACCGGAGTCACCTAGTGCAG”: 20500 fluorescence intensity (a.u.); for “GAGAGTATCTAATTAATCATATGCTAATGAGTTTTCTTGTCGGAGTCACCTAGTGCAG”: 3630 fluorescence intensity (a.u.); for “TGAGTATGATGAGATTAATTTCTTGCCTGTTTCTGCTGGACGGAGTCACCTAGTGCAG”: 5980 fluorescence intensity (a.u.). Consider “CTGAAACTAGAATTGATGCCAAATGAGTTGAGGTTGGAATCGGAGTCACCTAGTGCAG”, for which the binding signal is 4490 fluorescence intensity (a.u.).

Regarding “AACAAACAATCAAATATTTAGGCCATGTTTAGTTCACGCCCGGAGTCACCTAGTGCAG”, the binding signal was 5130 fluorescence intensity (a.u.).

With “CTTTAATAAGTTAATAGATAGATGGAAACGAATCAAATCACGGAGTCACCTAGTGCAG”, the binding signal is 16200 fluorescence intensity (a.u.). For the sequence “AGGTAGATTGAGTTTAAGTTATTGAATCTGGTTAGGGTGACGGAGTCACCTAGTGCAG”, the binding signal is 7120 fluorescence intensity (a.u.). Regarding “TTATCCTAATTAACCTTGCTGGAGCTTTATCGTATACTAGCGGAGTCACCTAGTGCAG”, the binding signal is 5300 fluorescence intensity (a.u.).

As for “GTTCAGATGATTGAGATCTACAATGAGCAAATCCGTGATCCGGAGTCACCTAGTGCAG”, the binding signal was 38600 fluorescence intensity (a.u.).

Consider “ACATAACTACTGATTGTTAGAATCTGGTCGAAATGGCATACGGAGTCACCTAGTGCAG”, for which the binding signal was 9260 fluorescence intensity (a.u.).

As for “AGCTAATACTTAATTAATCACGCGCTAATAGACCGCTCCGCGGAGTCACCTAGTGCAG”, the binding signal was 23100 fluorescence intensity (a.u.).

Regarding “AAATAATTAGTCGCACCAAACTTCCAATTTTAGTGTGGAACGGAGTCACCTAGTGCAG”, the binding signal is 23000 fluorescence intensity (a.u.). Take “CGTGCCAATCAATTAATCGATCGATCAGTTTTGTGCGTACCGGAGTCACCTAGTGCAG”: the binding signal is 51800 fluorescence intensity (a.u.).

As to “GGCTGGGGTGGGCTCTACTTGACAGACTGATACTCCTACTCGGAGTCACCTAGTGCAG”, the binding signal was 7510 fluorescence intensity (a.u.). Turning to “CCTAATTAATCCATAGCACATGTTTACTGTAGCGTCACATCGGAGTCACCTAGTGCAG”, the binding signal was 12400 fluorescence intensity (a.u.). To “AAATTAACCGGAGTGAAGATTGTTTGGCAGCTGAAACTGCCGGAGTCACCTAGTGCAG” belongs 3900 fluorescence intensity (a.u.). Consider “TTGACTGAGACAGGTACATAGTTTAAAGTTAGACCACATGCGGAGTCACCTAGTGCAG”, for which the binding signal is 9000 fluorescence intensity (a.u.).

For the sequence “AGATCCCGTGATTAGAAATGGAACTCGCCTCTCGATCTCACGGAGTCACCTAGTGCAG”, the binding signal is 13300 fluorescence intensity (a.u.). On to “ATTGATTGAGAAAATAATGTTGGTGAATAAATTGTTATATCGGAGTCACCTAGTGCAG”, for which the binding signal was 40700 fluorescence intensity (a.u.).

For “CTTGACTGTCTTCTCTCTCCCTGTTCATTCTAGATTCTGTCGGAGTCACCTAGTGCAG”, the binding signal was 25800 fluorescence intensity (a.u.). Turning to “CCCGATTGAGATAGGTCATCTGTGACGGGCTATAGTTTGACGGAGTCACCTAGTGCAG”, the binding signal is 22800 fluorescence intensity (a.u.). Turning to “AGTAAATAAATAGATTAAAGTGCAGGTGGGAGAAACAACGCGGAGTCACCTAGTGCAG”, the binding signal was 19500 fluorescence intensity (a.u.). On to “CACTACAAATTAATGAGACACTAAGTTAAGTTATATTGACCGGAGTCACCTAGTGCAG”, for which the binding signal was 4590 fluorescence intensity (a.u.).

On to “AGCCAATCAACGGTGGGCCACATTGCTGAACATATAAATTCGGAGTCACCTAGTGCAG”, for which the binding signal was 5510 fluorescence intensity (a.u.). To “AATAAATTCTGATAGATTTACCCCAGTCGGGCCGTAACGGCGGAGTCACCTAGTGCAG” belongs 17800 fluorescence intensity (a.u.). On to “GTTTTAATTCATATTGATGGAGTACTTCATTTAACCGAAACGGAGTCACCTAGTGCAG”, for which the binding signal is 5980 fluorescence intensity (a.u.). To “TAAAATTAGATGACGCACATTGACTAATATAACAATTTGGCGGAGTCACCTAGTGCAG” belongs 21600 fluorescence intensity (a.u.); to “TAAATAATTTCCTTGGTGTGGTACTCTTTGAAAACGTTATCGGAGTCACCTAGTGCAG”, 3690 fluorescence intensity (a.u.). With “CCACCAACCAATCAAACTTTCTTGTTAATAATGAATAATTCGGAGTCACCTAGTGCAG”, the binding signal is 3860 fluorescence intensity (a.u.). Consider “AATTAATTTTCAAACATCCGATGTGATAGGGACTTAAAAGCGGAGTCACCTAGTGCAG”, for which the binding signal was 8480 fluorescence intensity (a.u.). To “GTTCAATATACTAATTAGTGTGACATGGCTCTCATCATATCGGAGTCACCTAGTGCAG” belongs 9110 fluorescence intensity (a.u.). In the case of “GTGTAGTTAATTACTACACTAGGCTTTTGCTCGTCTTCCGCGGAGTCACCTAGTGCAG”, the binding signal is 8780 fluorescence intensity (a.u.). With “TTATCAATTATCAAGTAACATAATTACATAAGATAAGTGACGGAGTCACCTAGTGCAG”, the binding signal was 17000 fluorescence intensity (a.u.).

For “GTGTGCCTAATCAATCAGGAGCTCATGTCTATAGCCCACCCGGAGTCACCTAGTGCAG”, the binding signal was 25700 fluorescence intensity (a.u.). With “GTTAAATAAGCAATTATCCCATTTAACATATCGGAATTTCCGGAGTCACCTAGTGCAG”, the binding signal was 11200 fluorescence intensity (a.u.).
